# Measured values: PubChem BioAssay AID651568 (National Center for Advancing Translational Sciences (NCATS), 2012)
# Screen size: about 1,200 compounds; about 55 (5%) were called active. Inconclusive results (about 15%) are left out. Calls come from the whole dose curve; as a rule, active = well fitted inhibition curve with a large enough effect; inconclusive = small, poorly fitted or top-dose-only effect; inactive = no such curve, though single readings can be large or run the other way. The list shows a part of the results.
# Assay: qHTS Assay to Find Inhibitors of Chronic Active B-Cell Receptor Signaling: Hit Validation in Renilla Reporter Assay; note: nearly all actives have a fitted effect of over 70% in size
# Conditions: TMD8 IkB-Renilla luciferase reporter, NF-kB signaling; series mostly up to 57.5 µM; activity change, negative = inhibition: at the top concentration
# Summary of the method: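 Dual-Glo luminescence read-out of constitutively expressed IkB-Photinus/Renilla luciferase reporters in ABC-DLBCL lines, used to retest primary hits; reporter enzymes differ from the click beetle luciferases used in the primary screen.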
# % is set by controls: 0 for no effect and ±100 for the full control effect; potency is the fitted concentration of half-maximal effect.
SMILES,"activity change, negative = inhibition",Potency
CCCNS(=O)(=O)c1cccc(C(=O)OCc2cc(=O)oc3cc(OC)ccc23)c1,inactive: 32.7%,
Cc1ccc(NC(=O)c2ccco2)c([N+](=O)[O-])c1,inactive: 0.0881%,
CCN(CC)c1ccc(/C=N/N=C(N)N)c(O)c1,inactive: -24%,
C#CCOCCOCCOCCNc1nc(N2CCN(C(=O)[C@H](C(C)C)n3cc(CCO)nn3)CC2)nc(N2CCN(C(=O)[C@H]([C@@H](C)CC)n3cc(CCCN=C(N)N)nn3)CC2)n1,inactive: -4.11%,
Cc1cc(C)n(-c2nc3ccccc3c(=O)n2OCC#N)n1,,active: 16.9 µM
FC(F)(F)c1nnc2ccc(Cl)nn12,inactive: 4.86%,
COCCNC(=S)N/N=C(\C)c1ccc2cc(OC)ccc2c1,inactive: -9.27%,
Cc1csc(NC(=S)Nc2cccc(Cl)c2)n1,inactive: -22.3%,
CC[C@]1(O)C[C@@H]2CN(CCc3c([nH]c4ccccc34)[C@@](C(=O)OC)(c3cc4c(cc3OC)N(C)[C@H]3[C@@](O)(C(=O)OC)[C@H](OC(C)=O)[C@]5(CC)C=CCN6CC[C@]43[C@@H]65)C2)C1,inactive: -22.6%,
CCOC(=O)Nc1ccc2nc(N3CCCCCC3)sc2c1,inactive: 6.68%,
CCCCC[C@H](O)/C=C/[C@@H]1[C@@H](CCCCCCC(=O)O)[C@@H](O)C[C@H]1O,inactive: -7.05%,
S=c1[nH]cnc2sc(-c3ccccc3)cc12,inactive: 6.87%,
COc1ccc(C2CC(=O)Nc3cc(OC)c(OC)cc32)cc1Br (configuration not stated),inactive: 3.32%,
COc1ccc(S(N)(=O)=O)cc1C(=O)OCCCOC(=O)c1cc(S(N)(=O)=O)ccc1OC,inactive: 2.04%,
COc1ccc(-c2ccc(CCC(=O)O)n2-c2ccccc2OC)cc1,inactive: -1.5%,
COc1ccc(/C=N\NC(=O)c2ccccc2F)cc1COc1ccc(F)cc1F,inactive: -2%,
Cc1cc(NC2CCCCC2)nc2ccccc12,inactive: 2.17%,
CCOc1ccc(Nc2cc(C)nc(-n3nc(C)cc3C)n2)cc1,inactive: -24.1%,
CCOc1ccccc1C1C2=C(COC2=O)Nc2cc3c(cc21)OCO3 (configuration not stated),inactive: -23.1%,
Cc1c(CCC(=O)NCCCC(=O)O)c(=O)oc2cc3oc4c(c3cc12)CCCC4,inactive: 0.969%,
CC1CCC2C(=O)N(c3ccc(C(=O)Oc4cccc5cccnc45)cc3)C(=O)C2C1 (configuration not stated),inactive: 6.04%,
Cc1ccccc1OCCc1c(C)[nH]c(=S)[nH]c1=O,inactive: -6.58%,
N#Cc1cccc2c1-c1ccccc1/C2=N/NC(N)=S,inactive: -22.6%,

SMILES,"activity change, negative = inhibition",Potency
CN1CCN(C(=S)NC(=O)c2ccc(-c3ccccc3)cc2)CC1,inactive: -28.4%,
COc1ccc(C)cc1Nc1cc(C)nc2ncnn12,inactive: 0.723%,
Cc1csc(NC(=S)NC(=O)c2ccccc2)n1,inactive: 7.99%,
CCOC(=O)c1[nH]c(C)c(C(=O)c2cc(F)ccc2F)c1C,inactive: -10.3%,
O=C(CCl)Nc1cc(S(=O)(=O)N2CCCCCC2)ccc1Cl,inactive: -87.8%,
Oc1cccc(Nc2nc(N3CCOCC3)nc(N3CCOCC3)n2)c1,inactive: -26.5%,
NC(=S)N/N=C/c1ccccc1OC(=O)/C=C/c1ccccc1,inactive: -12.7%,
O=C(c1cc([N+](=O)[O-])ccc1N1CCOCC1)N1CCN(c2ccccc2)CC1,inactive: 0.66%,
Cc1ccc(Cl)cc1NC(=S)N/N=C/c1cccc2ccccc12,inactive: 31.9%,
Cc1cc2c(cc(C(=O)OCC(=O)NCc3cccs3)n2C(C)C)o1,inactive: -16.9%,
COC(=O)c1cc(C#N)c(N(C)Cc2ccccc2)nc1C,inactive: 1.83%,
O=C(N/N=C/c1ccc(O)cc1)c1[nH]c2ccc(Br)cc2c1-c1ccccc1,inactive: 17.4%,
CCCCCOC(=O)c1[nH]c2c(c1C)C(=O)CC(c1ccco1)C2 (configuration not stated),inactive: -11.5%,
NNC(=O)/C(=C\c1ccco1)NC(=O)c1ccco1,inactive: 4.87%,
Cc1ccc2[nH]c(-c3ccccc3)cc(=O)c2c1,inactive: -4.01%,
COc1ccccc1CNC(=O)CSc1ccc(Br)cc1,inactive: 0.124%,
Cc1nn(CCC(=O)NNC(=S)Nc2ccccc2)c(C)c1Br,inactive: 9.79%,
Cc1c(C(=O)OCC(C)C)[nH]c2c1C(=O)CC(c1cccs1)C2 (configuration not stated),inactive: 16.2%,
C=CCNc1ncnc2c1ncn2C1OC(CO)C(O)C1O (configuration not stated),inactive: -8.32%,
C[C@H](Cc1ccccc1)Nc1ncnc2c1ncn2[C@@H]1O[C@H](CO)[C@@H](O)[C@H]1O,inactive: -12.9%,
COc1cc(-c2c(-c3cc(OC)c(OC)c(OC)c3)noc2C)ccc1F,inactive: -25%,
Cc1cccc(-n2c3nc(=O)[nH]c(=O)c-3cc3cc([N+](=O)[O-])ccc32)c1,,active: 26.9 µM
O=C(NC(=S)N1CCOCC1)c1cn(-c2ccccc2)nc1-c1ccccc1,inactive: -1.67%,

SMILES,"activity change, negative = inhibition",Potency
COc1ccc(-c2csc(C3=C(O)CN(CCCN4CCCC4=O)C3=N)n2)cc1OC,inactive: -14.8%,
COc1cc(OC)cc(C(=O)NCc2ccc3c(c2)CCN3C(=O)c2ccccc2)c1,inactive: 2.99%,
O=C(CSc1cccc[n+]1[O-])c1ccc(Cl)s1,inactive: -9.8%,
O=C(/C=C/c1ccco1)NC(=S)Nc1cccc(-c2nc3ccccc3o2)c1,inactive: 9.24%,
COc1ccc(NC(=S)N/N=C/c2ccc(F)c(F)c2)cc1,inactive: 0.264%,
Cc1ccc(NC(=S)NNC(=S)Nc2ccc(C)cc2C)cc1,inactive: 5.73%,
CCOc1ccccc1N=NC1C(=O)N(C(N)=S)N=C1C (configuration not stated),inactive: -19.6%,
COc1cc2nc(=S)n3[nH]c(COc4ccccc4C)nc3c2cc1OC,inactive: -24.3%,
CCOC(=O)c1[nH]c(C)c(C(=O)Nc2cc(Cl)ccc2C)c1C,inactive: 1.81%,
CCCc1noc2c1C(c1ccoc1)C(C#N)=C(N)N2 (configuration not stated),,active: 23.9 µM
Cc1cccc(C)c1OCC(=O)N/N=C/C=C/c1ccco1,inactive: -3.11%,
COc1cccc2sc(Nc3nnc(-c4ccccc4Cl)o3)nc12,inactive: 19.2%,
CCCCNC(=S)NNC(=O)CCn1nc(C)c(Br)c1C,inactive: 5.36%,
COc1ccccc1C1=NOC(COc2ccc3c(C)cc(=O)oc3c2)C1 (configuration not stated),inactive: -19.8%,
COc1ccc(S(=O)(=O)N2CCOCC2)cc1NC(=O)/C=C/c1ccc(F)cc1,inactive: 2.91%,
O=C(NC(=S)NC1CCSC1=O)c1cccs1 (configuration not stated),inactive: 2.61%,
CCO[C@H]1OC(C(=O)NCc2nc3ccccc3[nH]2)=C[C@@H](C2CC2)[C@@H]1CCCO,inactive: -7.78%,
O=C(Nc1ncc(Cc2ccc(SC(F)F)cc2)s1)c1ccc(OC(F)F)cc1,inactive: -27.7%,
COc1ccc(CN(C)C(=O)Cn2cnc3c(NCc4ccccc4)ncnc32)cc1OC,inactive: -17.5%,
NC(=S)N=Nc1c(O)n(Cc2ccc(F)cc2)c2ccccc12,inactive: -6.07%,
COc1ccc(-c2nnc(SCC(=O)NCc3ccccc3)nc2-c2ccc(OC)c(OC)c2)cc1OC,inactive: 2.39%,
